In the supplement of paper PMC8728848:
This is one part of the list.

Tests used:
Test in all cases: glycan array binding signal (z-score within array); higher = stronger binding
Conditions in all cases: glycan notation: IUPAC condensed, linker removed
Gal(b1-3)GlcNAc6S = target: Gal(b1-3)GlcNAc6S
Summary of the method: (§1)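 Glycan array data came from 3228 arrays in the Consortium for Functional Glycomics database, and only arrays with an available protein sequence were kept. Glycan names were put into IUPAC-condensed notation, and columns mapping to the same glycan were averaged. The binding signal is a within-array Z-score, averaged across arrays of one protein sequence run at different concentrations or buffers and across linkers. A negative Z-score can be read as non-binding.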

[1] = target: Gal(b1-3)[Fuc(a1-4)]GlcNAc
Summary of the method: as §1

[2] = target: Gal(b1-3)[Fuc(a1-4)]GlcNAc(b1-2)Man(a1-3)[Gal(b1-3)[Fuc(a1-4)]GlcNAc(b1-2)Man(a1-6)]Man(b1-4)GlcNAc(b1-4)[Fuc(a1-6)]GlcNAc
Summary of the method: as §1

[3] = target: Gal(b1-3)[Fuc(a1-4)]GlcNAc(b1-3)Gal(b1-3)[Fuc(a1-4)]GlcNAc
Summary of the method: as §1

[4] = target: Gal(b1-3)[Fuc(a1-4)]GlcNAc(b1-3)Gal(b1-4)GlcNAc
Summary of the method: as §1

[5] = target: Gal(b1-3)[Fuc(a1-4)]GlcNAc(b1-3)Gal(b1-4)[Fuc(a1-3)]GlcNAc
Summary of the method: as §1

[6] = target: Gal(b1-3)[Fuc(a1-4)]GlcNAc(b1-6)GalNAc
Summary of the method: as §1

[7] = target: Gal(b1-3)[GlcNAc(b1-6)]GalNAc
Summary of the method: as §1

[8] = target: Gal(b1-3)[Neu5Ac(a2-6)]GalNAc
Summary of the method: as §1

[9] = target: Gal(b1-3)[Neu5Ac(a2-6)]GlcNAc(b1-6)Gal(b1-4)Glc
Summary of the method: as §1

[10] = target: Gal(b1-3)[Neu5Ac(b2-6)]GalNAc
Summary of the method: as §1

Gal(b1-4)Gal = target: Gal(b1-4)Gal
Summary of the method: as §1

[11] = target: Gal(b1-4)GalNAc(a1-3)[Fuc(a1-2)]Gal(b1-4)GlcNAc
Summary of the method: as §1

[12] = target: Gal(b1-4)GalNAc(b1-3)[Fuc(a1-2)]Gal(b1-4)GlcNAc
Summary of the method: as §1

Gal(b1-4)Glc = target: Gal(b1-4)Glc
Summary of the method: as §1

Gal(b1-4)Glc6S = target: Gal(b1-4)Glc6S
Summary of the method: as §1

Gal(b1-4)GlcNAc = target: Gal(b1-4)GlcNAc
Summary of the method: as §1

[13] = target: Gal(b1-4)GlcNAc(a1-6)Gal(b1-4)GlcNAc
Summary of the method: as §1

Gal(b1-4)GlcNAc(b1-2)Man = target: Gal(b1-4)GlcNAc(b1-2)Man
Summary of the method: as §1

[14] = target: Gal(b1-4)GlcNAc(b1-2)Man(a1-3)Man(b1-4)GlcNAc(b1-4)GlcNAc
Summary of the method: as §1

[15] = target: Gal(b1-4)GlcNAc(b1-2)Man(a1-3)[Gal(b1-4)GlcNAc(b1-2)Man(a1-6)]Man(b1-4)GlcNAc(b1-4)GlcNAc
Summary of the method: as §1

[16] = target: Gal(b1-4)GlcNAc(b1-2)Man(a1-3)[Gal(b1-4)GlcNAc(b1-2)Man(a1-6)]Man(b1-4)GlcNAc(b1-4)[Fuc(a1-6)]GlcNAc
Summary of the method: as §1

[17] = target: Gal(b1-4)GlcNAc(b1-2)Man(a1-3)[Gal(b1-4)GlcNAc(b1-2)][GlcNAc(b1-4)]Man(b1-4)GlcNAc(b1-4)GlcNAc
Summary of the method: as §1

[18] = target: Gal(b1-4)GlcNAc(b1-2)Man(a1-3)[GlcNAc(b1-2)Man(a1-6)]Man(b1-4)GlcNAc(b1-4)GlcNAc
Summary of the method: as §1

[19] = target: Gal(b1-4)GlcNAc(b1-2)Man(a1-3)[Man(a1-6)]Man(b1-4)GlcNAc(b1-4)GlcNAc
Summary of the method: as §1

[20] = target: Gal(b1-4)GlcNAc(b1-2)Man(a1-6)Man(b1-4)GlcNAc(b1-4)GlcNAc
Summary of the method: as §1

[21] = target: Gal(b1-4)GlcNAc(b1-2)Man(a1-6)[GlcNAc(b1-2)Man(a1-3)]Man(b1-4)GlcNAc(b1-4)GlcNAc
Summary of the method: as §1

[22] = target: Gal(b1-4)GlcNAc(b1-2)Man(a1-6)[Man(a1-3)]Man(b1-4)GlcNAc(b1-4)GlcNAc
Summary of the method: as §1

[23] = target: Gal(b1-4)GlcNAc(b1-2)[Gal(b1-4)GlcNAc(b1-4)]Man(a1-3)[Gal(b1-4)GlcNAc(b1-2)Man(a1-6)]Man(b1-4)GlcNAc(b1-4)GlcNAc
Summary of the method: as §1

[24] = target: Gal(b1-4)GlcNAc(b1-2)[Gal(b1-4)GlcNAc(b1-4)]Man(a1-3)[Gal(b1-4)GlcNAc(b1-2)[Gal(b1-4)GlcNAc(b1-6)]Man(a1-6)]Man(b1-4)GlcNAc(b1-4)GlcNAc
Summary of the method: as §1

B1: PRKCE (Homo sapiens), Q02156 (protein)
chain: MVVFNGLLKIKICEAVSLKPTAWSLRHAVGPRPQTFLLDPYIALNVDDSRIGQTATKQKTNSPAWHDEFVTDVCNGRKIELAVFHDAPIGYDDFVANCTIQFEELLQNGSRHFEDWIDLEPEGRVYVIIDLSGSSGEAPKDNEERVFRERMRPRKRQGAVRRRVHQVNGHKFMATYLRQPTYCSHCRDFIWGVIGKQGYQCQVCTCVVHKRCHELIITKCAGLKKQETPDQVGSQRFSVNMPHKFGIHNYKVPTFCDHCGSLLWGLLRQGLQCKVCKMNVHRRCETNVAPNCGVDARGIAKVLADLGVTPDKITNSGQRRKKLIAGAESPQPASGSSPSEEDRSKSAPTSPCDQEIKELENNIRKALSFDNRGEEHRAASSPDGQLMSPGENGEVRQGQAKRLGLDEFNFIKVLGKGSFGKVMLAELKGKDEVYAVKVLKKDVILQDDDVDCTMTEKRILALARKHPYLTQLYCCFQTKDRLFFVMEYVNGGDLMFQIQRSRKFDEPRSRFYAAEVTSALMFLHQHGVIYRDLKLDNILLDAEGHCKLADFGMCKEGILNGVTTTTFCGTPDYIAPEILQELEYGPSVDWWALGVLMYEMMAGQPPFEADNEDDLFESILHDDVLYPVWLSKEAVSILKAFMTKNPHKRLGCVASQNGEDAIKQHPFFKEIDWVLLEQKKIKPPFKPRIKTKRDVNNFDQDFTREEPVLTLVDEAIVKQINQEEFKGFSYFGEDLMP
glycan array binding signal (z-score) (Gal(b1-3)GlcNAc6S): -0.044 | glycan array binding signal (z-score) [1]: -0.387 | glycan array binding signal (z-score) [2]: 0.082 | glycan array binding signal (z-score) [3]: -0.381 | glycan array binding signal (z-score) [4]: -0.375 | glycan array binding signal (z-score) [5]: -0.26 | glycan array binding signal (z-score) [6]: 0.102 | glycan array binding signal (z-score) [7]: 0.429 | glycan array binding signal (z-score) [8]: -0.319 | glycan array binding signal (z-score) [9]: -0.065 | glycan array binding signal (z-score) [10]: -0.23 | glycan array binding signal (z-score) (Gal(b1-4)Gal): 0.005 | glycan array binding signal (z-score) [11]: -0.242 | glycan array binding signal (z-score) [12]: 0.061 | glycan array binding signal (z-score) (Gal(b1-4)Glc): -0.241 | glycan array binding signal (z-score) (Gal(b1-4)Glc6S): 0.831 | glycan array binding signal (z-score) (Gal(b1-4)GlcNAc): -0.411 | glycan array binding signal (z-score) [13]: -0.379 | glycan array binding signal (z-score) (Gal(b1-4)GlcNAc(b1-2)Man): -0.353 | glycan array binding signal (z-score) [14]: 0.471 | glycan array binding signal (z-score) [15]: 0.614 | glycan array binding signal (z-score) [16]: -0.398 | glycan array binding signal (z-score) [17]: -0.146 | glycan array binding signal (z-score) [18]: 2.61 | glycan array binding signal (z-score) [19]: 0.265 | glycan array binding signal (z-score) [20]: -0.31 | glycan array binding signal (z-score) [21]: 1.3 | glycan array binding signal (z-score) [22]: 0.074 | glycan array binding signal (z-score) [23]: -0.066 | glycan array binding signal (z-score) [24]: -0.392
